Laboratory results from PubChem BioAssay AID485344 (National Center for Advancing Translational Sciences (NCATS), 2010).
Screen size: about 340,000 compounds; about 6,900 (2%) were called active. Cut-off read from the data, not from the text of the source: active = inhibition above about 30%; inactive = below that, where a call was filed. The list shows a part of the results, in another mix than the full data. The source gives no active or inactive call for entries shown without one.

Target: D(2) dopamine receptor (Homo sapiens) (UniProt P14416)
Chain of UniProt P14416 (P14416 whole entry, looked up): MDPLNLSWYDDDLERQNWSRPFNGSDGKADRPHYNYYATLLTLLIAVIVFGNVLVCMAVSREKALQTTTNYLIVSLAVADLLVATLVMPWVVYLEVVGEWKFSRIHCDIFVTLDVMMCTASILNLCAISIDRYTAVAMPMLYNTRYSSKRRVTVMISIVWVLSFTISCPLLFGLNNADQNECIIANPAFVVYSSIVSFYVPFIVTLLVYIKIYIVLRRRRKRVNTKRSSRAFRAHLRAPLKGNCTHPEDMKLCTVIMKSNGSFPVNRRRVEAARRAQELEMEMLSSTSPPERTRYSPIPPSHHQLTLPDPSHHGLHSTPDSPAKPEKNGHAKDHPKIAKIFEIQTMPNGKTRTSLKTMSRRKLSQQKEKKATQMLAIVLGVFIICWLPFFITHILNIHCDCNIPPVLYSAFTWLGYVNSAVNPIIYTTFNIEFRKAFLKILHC
Test: HTS Assay for Allosteric Antagonists of the Human D2 Dopamine Receptor: Primary Screen for Antagonists; note: 0% is about no effect
Details: HEK293 TREx D2 cells, calcium flux, dopamine EC80; at 10 µM; stronger effect = higher value
In short: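 Dopamine at EC80 is the agonist stimulus; test compounds precede it by 180 s. Calcium flux read kinetically in a force-coupled, inducible HEK293 T-REx D2 cell line.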

| SMILES | inhibition |
| --- | --- |
| Cc1cc(C)c2c(=O)cc(CSCC(=O)Nc3ccccc3Cl)[nH]c2c1 | -15% |
| Cc1ccc2nc(N3CCN(c4cccc(Cl)c4)CC3)c(-n3nc(C)cc3C)nc2c1 | 23.2% |
| Cc1cccc(Oc2nc3c(C)cccn3c(=O)c2/C=C(\C#N)c2nc3ccccc3[nH]2)c1 | -8.36% |
| COc1ccc(CNC(=O)CCn2cccn2)cc1 | -11.6% |
| O=C(COc1ccc(Br)cc1)Nc1ccc2c(c1)C(=O)NC2=O | active: 33.4% |
| Cc1ccccc1C(=O)n1nc(-c2ccco2)nc1NCc1ccc(Cl)cc1 | -8.62% |
| Cc1ccc(C(C)C)c(OCC(=O)NCC2(N(C)C)CCCCC2)c1 | -5.08% |
| COc1ccc(CCn2cc3c(c2-c2ccc(Br)cc2)c(=O)n(C)c(=O)n3C)cc1OC | 10.5% |
| O=C(NCCc1ccccc1Cl)c1ccc(Cn2c(=O)c3cccn3c3cccnc32)cc1 | 16.3% |
| COc1ccc(-c2nc(C)c(CCNC(=O)C(=O)Nc3ccccc3OC)s2)cc1 | -21.4% |
| CCOC(=O)C1CCC(CN(Cc2cccc(Br)c2)S(=O)(=O)c2ccc(C)cc2)CC1 (configuration not stated) | 0.712% |
| CCc1ccc(C(=O)c2cn(CC(=O)Nc3ccc4c(c3)OCO4)c3cc(OC)c(OC)cc3c2=O)cc1 | 13.7% |
| CCc1ccccc1NC(=O)c1c(NC(=O)c2ccccc2)sc2c1CCCC2 | 2.49% |
| Cc1ccc(-c2nnc(SCc3ccccc3C)o2)cc1 | 11% |
| O=C(COc1ccc(Cl)cc1)Nc1ccc(-c2nc3ccccc3s2)c(O)c1 | -17.4% |
| Cc1ccc(C)c(N2CCN(C(=O)C3CCCN(S(=O)(=O)c4ccc5c(c4)oc(=O)n5C)C3)CC2)c1 (configuration not stated) | -11.3% |
| CCCCCn1c(C(C)NC(=O)c2ccccc2)nc2ccccc21 (configuration not stated) | 14.6% |
| COc1ccc(Nc2nc(-c3ccc(C)cc3)nc3ccccc23)c(OC)c1 | -8.66% |
| CCOc1ccc(-c2nonc2NC(=O)COc2c(C)cc(C)cc2C)cc1OCC | -0.574% |
| Fc1ccc(-c2noc3ncnc(NCCc4ccccc4)c23)cc1 | -13.9% |
| COc1ccc2c(c1)c1c(c(=O)n(Cc3ccccc3)c(=O)n1CC(=O)NCc1ccccc1Cl)n2C | 11.9% |
| CCOc1cc(CNC(=O)C2COc3ccccc3C2)cc(OCC)c1OCC (configuration not stated) | -13.4% |
| CCc1nn(CC(=O)NCCc2ccc(OC)cc2OC)c(=O)c2cc3c(OC)cccc3n12 | -8.2% |
| CCOC(=O)N1CCN(C(=O)Nc2ccccc2)CC1 | active: 30.7% |
| COc1ccc(NC(=O)Cn2c(SCc3cc(C)ccc3C)nc3ccncc32)c(OC)c1OC | -26% |
| Cc1c(CCNC(=O)c2ccc(Br)o2)sc2nc(-c3ccc(F)cc3)nn12 | -5.58% |
| CCOc1ccccc1NC(=O)Cn1cc(C(=O)c2cccc(OC)c2)c(=O)c2ccc(C)nc21 | -2.02% |
